Our source for the cytotoxicity call and growth inhibition call values is the antibiotic and cytotoxicity screens of Wong et al. (2023).

The test system of one experiment is HSkMC. The experiment in a line: cytotoxicity call (relative viability < 0.9). The note with it: 10 µM.
A further experiment has as its system HepG2. Nature of the experiment: cytotoxicity call (relative viability < 0.9). The note with it: 10 µM.
In a further experiment the test system is S. aureus RN4220. The experiment in a line: growth inhibition call (relative growth <= 0.2). The settings on record: 50 µM.

Molecules are shown by their SMILES. The list shows a part of the results.

As to `COc1ccc(NC(=O)Nc2cccc3c2O[C@H](CN(C)C(=O)Nc2cccc4ccccc24)[C@@H](C)CN([C@@H](C)CO)C3=O)cc1`, the cytotoxicity call in the experiment on HSkMC and in the experiment on HepG2 was “inactive” each time. The growth inhibition call in the experiment with S. aureus RN4220 was “inactive”.

Consider `C[C@@H]1CN([C@@H](C)CO)S(=O)(=O)c2ccc(-c3ccc(F)cc3)cc2O[C@@H]1CN(C)S(C)(=O)=O`, for which the cytotoxicity call in the experiment with HSkMC and with HepG2 was “inactive” throughout. The growth inhibition call with S. aureus RN4220 was “inactive”.

`Cc1ccc(S[C@]2(C(=O)NCC(C)C)CC(=O)N(Cc3ccccc3C(F)(F)F)[C@@H]2c2ccc(CO)cc2I)cc1`: the cytotoxicity call in the experiment with HSkMC and in the experiment on HepG2 was “inactive” throughout. Also, the growth inhibition call with S. aureus RN4220 was “inactive”.

Take `C[C@H]1CN([C@@H](C)CO)C(=O)c2cc(NC(=O)CCN3CCOCC3)ccc2O[C@H]1CN(C)S(=O)(=O)c1cn(C)cn1`: the cytotoxicity call in the experiment with HSkMC and in the experiment on HepG2 was “inactive” in each case. Besides, the growth inhibition call with S. aureus RN4220 was “inactive”.

Regarding `CNC(=O)CC1CCNCC1`, the cytotoxicity call in the experiment on HSkMC and with HepG2 was “inactive” throughout. In addition, in the experiment with S. aureus RN4220, the growth inhibition call is “inactive”.

As for `C[C@@H]1CN([C@@H](C)CO)C(=O)c2cccc(NC(=O)c3ccncc3)c2O[C@H]1CN(C)S(=O)(=O)c1ccc(F)cc1`, the cytotoxicity call in the experiment on HSkMC and in the experiment with HepG2 was “inactive” each time. Also, the growth inhibition call in the experiment with S. aureus RN4220 is “inactive”.

For `O=C(Nc1ccc(Oc2ccc(Cl)cc2)c(Cl)c1)c1cc(I)cc(I)c1O`, the cytotoxicity call with HSkMC and in the experiment on HepG2 was “active” throughout. For the same molecule, in the experiment on S. aureus RN4220, the growth inhibition call was “inactive”.

On to `O=C1N(Cc2ccccc2)c2ccccc2[C@@H]2OC(c3ccc(OCCCO)cc3)=N[C@]12CCS(=O)(=O)c1ccccc1`, for which the cytotoxicity call in the experiment on HSkMC and in the experiment on HepG2 was “inactive” each time. Moreover, the growth inhibition call in the experiment on S. aureus RN4220 was “inactive”.

Consider `C[C@@H]1CN([C@@H](C)CO)C(=O)c2cc(NC(=O)Nc3ccc(F)cc3)ccc2O[C@H]1CN(C)CC1CCCCC1`, for which the cytotoxicity call in the experiment on HSkMC and in the experiment on HepG2 was “inactive” throughout. Also, in the experiment with S. aureus RN4220, the growth inhibition call was “inactive”.

Regarding `COc1ccc2[nH]cc(CCNC(C)=O)c2c1`, the cytotoxicity call in the experiment on HSkMC and in the experiment on HepG2 was “inactive” each time. The growth inhibition call in the experiment on S. aureus RN4220 is “inactive”.

For the molecule `C[C@@H]1CN([C@H](C)CO)C(=O)c2cccc(NC(=O)C3CC3)c2O[C@@H]1CN(C)Cc1ccc2c(c1)OCO2`, the cytotoxicity call in the experiment on HSkMC and with HepG2 was “inactive” throughout. The growth inhibition call in the experiment with S. aureus RN4220 is “inactive”.

As to `C[C@@H]1CN([C@@H](C)CO)C(=O)c2cc(NC(=O)CCCCCC(=O)Nc3ccccc3N)ccc2O[C@H]1CN(C)C(=O)Nc1ccccc1`, the cytotoxicity call with HSkMC and in the experiment with HepG2 was “inactive” in each case. Further, the growth inhibition call with S. aureus RN4220 is “inactive”.

For the molecule `C[C@@H]1CN([C@H](C)CO)C(=O)Cc2cc(NC(=O)Nc3ccc(C(F)(F)F)cc3)ccc2O[C@@H]1CN(C)Cc1ccc(Cl)c(Cl)c1`, the cytotoxicity call in the experiment on HSkMC and with HepG2 was “active” in each case. The growth inhibition call with S. aureus RN4220 is “inactive”.

Take `C[C@@H]1CCCCO[C@H](CN(C)CC2CC2)[C@H](C)CN([C@@H](C)CO)C(=O)c2cc(NC(=O)CCC(F)(F)F)ccc2O1`: the cytotoxicity call with HSkMC and in the experiment on HepG2 was “inactive” in each case. The growth inhibition call with S. aureus RN4220 is “inactive”.

With `C[C@@H]1CN([C@@H](C)CO)C(=O)c2cc(NC(=O)NC3CCCCC3)ccc2O[C@@H](C)CCCCO[C@@H]1CN(C)C(=O)Cc1ccccc1`, the cytotoxicity call in the experiment on HSkMC and in the experiment with HepG2 was “inactive” each time. Moreover, the growth inhibition call with S. aureus RN4220 was “inactive”.

For `C[C@H]1CN([C@@H](C)CO)C(=O)c2c(c3ccccc3n2C)-c2ccccc2CO[C@H]1CN(C)Cc1cccc(C(=O)O)c1`, the cytotoxicity call with HSkMC and with HepG2 was “inactive” in each case. Also, the growth inhibition call with S. aureus RN4220 is “inactive”.

Take `O=C(C[C@H]1CC[C@@H]2[C@H](COC[C@@H](O)CN2S(=O)(=O)c2ccccc2F)O1)NCc1ccccc1F`: the cytotoxicity call with HSkMC and with HepG2 was “inactive” in each case. Also, in the experiment on S. aureus RN4220, the growth inhibition call is “inactive”.

In the case of `COc1ccc(-c2ccc3cc(C(=O)O)ccc3c2)cc1C12CC3CC(CC(C3)C1)C2`, the cytotoxicity call with HSkMC and in the experiment with HepG2 was “inactive” in each case. Also, in the experiment with S. aureus RN4220, the growth inhibition call was “inactive”.

Take `C[C@@H]1CN([C@H](C)CO)S(=O)(=O)c2ccc(C#Cc3ccccc3F)cc2O[C@@H]1CN(C)CC1CCOCC1`: the cytotoxicity call in the experiment on HSkMC and in the experiment on HepG2 was “inactive” in each case. For the same molecule, the growth inhibition call in the experiment with S. aureus RN4220 was “inactive”.

As for `COC(=O)c1c(CC[C@@H](CO)NC(=O)N2CCC[C@H]2Cn2cc(C3(O)CCCCC3)nn2)oc(C(C)=O)c1C(=O)OC`, the cytotoxicity call with HSkMC and in the experiment on HepG2 was “inactive” in each case. Further, in the experiment on S. aureus RN4220, the growth inhibition call was “inactive”.

On to `COc1cccc(NC(=O)N(C)C[C@@H]2Oc3ncc(C#Cc4ccncc4)cc3C(=O)N([C@@H](C)CO)C[C@H]2C)c1`, for which the cytotoxicity call in the experiment with HSkMC and in the experiment on HepG2 was “inactive” each time. In addition, the growth inhibition call with S. aureus RN4220 was “inactive”.

Consider `Cc1ccc(S(=O)(=O)Nc2ccc3c(c2)C(=O)N(C)[C@@H]2CC[C@@H](CC(=O)NCCc4ccncc4)O[C@H]2CO3)cc1`, for which the cytotoxicity call in the experiment on HSkMC and with HepG2 was “inactive” in each case. Further, in the experiment with S. aureus RN4220, the growth inhibition call was “inactive”.

Regarding `COc1ccc(NC(=O)Nc2ccc3c(c2)C(=O)N([C@H](C)CO)C[C@H](C)[C@@H](CN(C)S(=O)(=O)c2ccc(C)cc2)OCCCC[C@@H](C)O3)cc1`, the cytotoxicity call with HSkMC and with HepG2 was “inactive” throughout. Besides, in the experiment with S. aureus RN4220, the growth inhibition call is “inactive”.

As for `O=C(C[C@@H]1CC[C@@H]2[C@H](COC[C@H](O)CN2S(=O)(=O)c2ccc(Cl)cc2)O1)N[C@@H]1CCN(Cc2ccccc2)C1`, the cytotoxicity call in the experiment on HSkMC (human skeletal muscle cells) was “inactive”. For the same molecule, in the experiment with HepG2, the cytotoxicity call was “active”. For the same molecule, in the experiment on S. aureus RN4220, the growth inhibition call was “inactive”.

On to `C[C@H]1CN([C@@H](C)CO)C(=O)c2cc(NC(=O)Cc3cn(C)c4ccccc34)ccc2O[C@H]1CN(C)Cc1ccc(Oc2ccccc2)cc1`, for which the cytotoxicity call with HSkMC and in the experiment with HepG2 was “inactive” in each case. In the experiment on S. aureus RN4220, the growth inhibition call is “inactive”.

For `C[C@@H]1CN([C@H](C)CO)S(=O)(=O)c2ccc(C#CC3(O)CCCC3)cc2O[C@H]1CN(C)C(=O)Nc1cccc(F)c1`, the cytotoxicity call in the experiment with HSkMC and in the experiment with HepG2 was “inactive” throughout. The growth inhibition call in the experiment with S. aureus RN4220 was “inactive”.

In the case of `CCOC(=O)CN1C(=O)c2ccccc2C1=O`, the cytotoxicity call in the experiment with HSkMC and with HepG2 was “inactive” throughout. Moreover, the growth inhibition call in the experiment with S. aureus RN4220 is “inactive”.
